# Results from PubChem BioAssay AID485281 (National Center for Advancing Translational Sciences (NCATS), 2010).
# Screen size: about 350,000 compounds; about 260 (0.074%) were called active. The inconclusive results got no clear call from the source; some entries with a clear call stand among them for comparison. The call rests on the fitted dose curve; in most records, active means well fitted inhibition curve with a large enough effect; inconclusive means small, poorly fitted or top-dose-only effect; inactive means no such curve, though single readings can be large or run the other way. Potencies of inconclusive entries are doubtful fits and often do not repeat.
# Target: Ferritin light chain (Equus caballus) (UniProt P02791)
# Test: qHTS Assay for Identification of Novel General Anesthetics; further: nearly all actives have a fitted effect of over 20% in size
# Conditions: apoferritin/1-aminoanthracene competitive binding, fluorescence; activity change, negative = displacement: at 77.5 µM (top of the series)
# Method in brief: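 Steps: apoferritin (10 uM) was premixed with half-saturated 1-AMA in PBS, compounds were pin-transferred, plates stood 10 min at room temperature, fluorescence was read at 380/535 nm, and curves were fitted with a Hill equation.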
# On the % scale 0 is the no-effect control and ±100 the full control effect; potency means the concentration at half of the fitted maximal effect; tags describe the fitted curve by direction and shape.
# Chain of UniProt P02791 (P02791 whole entry, looked up): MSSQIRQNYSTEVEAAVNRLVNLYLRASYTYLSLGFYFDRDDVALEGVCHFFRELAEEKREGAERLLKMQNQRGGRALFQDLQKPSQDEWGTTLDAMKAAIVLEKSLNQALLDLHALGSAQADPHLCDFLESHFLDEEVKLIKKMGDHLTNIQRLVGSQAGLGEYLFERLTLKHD
SMILES,Potency,"activity change, negative = displacement"
COc1ccc(NC(=O)NNC(=O)c2ccc(-c3ccccc3)cc2)c(OC)c1,"inconclusive: 14.1 µM [inhibitor, partial curve]",
Cc1cccc(N2CSC3=C(C#N)C(c4ccc(C)o4)CC(=O)N3C2)c1 (stereo not drawn),"inconclusive: 28.2 µM [inhibitor, single point]",
COc1cccc(Nc2sc(C(=O)c3ccc(F)cc3)c(N)c2C(=O)NCc2ccc(Cl)cc2)c1,"inconclusive: 0.891 µM [inhibitor, full curve]",
CCOC(=O)c1c(-c2ccccc2)n(C)c2ccc(O)cc12,"inconclusive: 31.6 µM [inhibitor, partial curve]",
COC(CNC(=O)c1ccc2c3c(onc13)-c1ccccc1C2=O)OC,,inactive: -8.86%
CCCCN(C)CCCNC(=O)c1cc(-c2ccc(Br)s2)nc2ccccc12,,inactive: -7.95%
COc1cccc(N2CC(NC(=O)CCCc3ccccc3)CC2=O)c1 (stereo not drawn),,inactive: -1.95%
Cc1ccc(C2=Nc3ccccc3SC(c3cccc([N+](=O)[O-])c3)C2)cc1 (stereo not drawn),"inconclusive: 50.1 µM [inhibitor, single point]",
CCC(Cc1ccccc1)n1c(=S)[nH]c2ccccc2c1=O (stereo not drawn),"inconclusive: 14.1 µM [inhibitor, partial curve]",
CC12CN3CC(C)(CN(C1)C3c1ccc(Br)cc1O)C2 (stereo not drawn),"inconclusive: 28.2 µM [inhibitor, partial curve]",
CC(C)(C)c1cc(C(=O)NNc2cc(C(F)(F)F)ccc2Cl)n(Cc2ccccc2)n1,,inactive: -15%
Cc1ccc(-c2noc(CNC(=O)c3ccc(Br)o3)n2)cc1,"inconclusive: 50.1 µM [inhibitor, partial curve, poor fit]",
O=C(CN(C(=O)c1csnn1)c1ccccc1Cl)NC1CCCCC1,"inconclusive: 20 µM [inhibitor, partial curve]",
Cc1cccc(NC(=O)c2cccc(N3C(=O)C4C5CCC(C5)C4C3=O)c2)c1C (stereo not drawn),"inconclusive: 11.2 µM [inhibitor, partial curve]",
CC(C)(C)C(=O)C(Cl)C(=O)Nc1ccccc1 (stereo not drawn),"inconclusive: 50.1 µM [inhibitor, single point]",
O=C(NC(Cc1ccc2c(c1)OCO2)C(=O)N1CCCC1C(=O)O)c1ccccc1 (stereo not drawn),,inactive: -4.85%
CCC(SC1=NCCS1)C(=O)Nc1ccc(S(N)(=O)=O)cc1 (stereo not drawn),"inconclusive: 39.8 µM [inhibitor, partial curve]",
CCN(CC)C(=O)Cn1c(C)c(/C=C/c2cc[n+](C)cc2)c2ccccc21,,inactive: 5.27%
O=C(COC(=O)c1cccs1)NCCC1=CCCCC1,"inconclusive: 22.4 µM [inhibitor, partial curve]",
CC1Cc2ccccc2N1C(=O)CSc1nnnn1C1CCCC1 (stereo not drawn),"inconclusive: 3.55 µM [inhibitor, partial curve]",
CN1CCN(C(=O)c2ccc(COc3ccc(C(C)(C)C)cc3)o2)CC1,"inconclusive: 39.8 µM [inhibitor, single point]",
CC(=O)NC(=S)NNC(=O)CCc1ccccc1,"inconclusive: 35.5 µM [inhibitor, partial curve]",

SMILES,Potency,"activity change, negative = displacement"
CC(C)c1ccc(S(=O)(=O)c2nnn3c2nc(N2CCCCC2)c2sccc23)cc1,,inactive: -8.53%
CCc1ccc(/C=C2\SC(N3CCCC3)=NC2=O)cc1,"inconclusive: 8.91 µM [inhibitor, partial curve]",
CC(C)CCNC(=O)C(=O)Nc1ccccc1,,inactive: -14%
CCOc1ccc(-c2ccc(NS(=O)(=O)c3cc([N+](=O)[O-])c(C)c([N+](=O)[O-])c3)cc2)nn1,"inconclusive: 31.6 µM [inhibitor, partial curve]",
CC(C)Cc1ccc(S(=O)(=O)Nc2cc3c(cc2N2CCOCC2)n(C)c(=O)c(=O)n3C)cc1,"inconclusive: 31.6 µM [inhibitor, single point]",
COc1ccc(-n2nc(C(=O)NCC(=O)NCc3ccco3)c3ccccc3c2=O)cc1,"inconclusive: 44.7 µM [inhibitor, partial curve]",
CCc1ccc(OCC(=O)OCC(=O)c2ccc3c(c2)NC(=O)CO3)cc1,"inconclusive: 5.62 µM [inhibitor, full curve]",
O=C(Nc1nc2ccccc2n1CCN1CCOCC1)c1cn(-c2ccccc2)nc1-c1ccccc1,,inactive: -7.88%
COc1ccc(CNc2nc(NCc3ccc(OC)cc3)n(C(=O)c3ccncc3)n2)cc1,"inconclusive: 25.1 µM [inhibitor, partial curve]",
Brc1ccccc1OCCCn1cnc2ccccc21,"inconclusive: 17.8 µM [inhibitor, partial curve]",
CCCCN(C)C(=O)C1CCCN(c2ncnc3onc(C)c23)C1 (stereo not drawn),"inconclusive: 12.6 µM [inhibitor, partial curve]",
Cc1cc(C)n(CC(O)Cn2c3ccc(Br)cc3c3cc(Br)ccc32)c(=O)n1 (stereo not drawn),"inconclusive: 2.82 µM [inhibitor, partial curve]",
O=C(CSc1ccc([N+](=O)[O-])cn1)Nc1ccc(N2CCOCC2)c(Cl)c1,"inconclusive: 44.7 µM [inhibitor, single point]",
COc1cc(OC)c(C(=O)NCc2ccco2)cc1OC,,inactive: -7.95%
COc1ccc(CNC(=O)COC(=O)c2ccccc2C(=O)c2ccccc2)cc1,"inconclusive: 44.7 µM [inhibitor, single point]",
CCOC(=O)CSc1nc2sc3c(c2c(=O)[nH]1)CCCC3,,inactive: -16%
Cc1ccc(NC(=O)C(C)c2cccc(C(=O)c3ccccc3)c2)cc1 (stereo not drawn),"inconclusive: 17.8 µM [inhibitor, partial curve]",
COc1ccc(C(=O)CN2C(=O)C(C)(C)Oc3ccc(C(=O)N4CCCCCC4)cc32)cc1,"inconclusive: 31.6 µM [inhibitor, single point]",
CC(C)c1cc(CNC(=O)c2cc(COc3cncc(Cl)c3)on2)on1,"inconclusive: 22.4 µM [inhibitor, partial curve]",
O=C(N/N=C/c1cc([N+](=O)[O-])ccc1N1CCCCCC1)c1ccccn1,"inconclusive: 10 µM [inhibitor, partial curve]",
Cc1c(O)ccc(C(=O)COc2ccc(F)cc2)c1O,"inconclusive: 14.1 µM [inhibitor, partial curve]",
